Assay results taken from ChEMBL document CHEMBL4888484, “Replenishing the malaria drug discovery pipeline: Screening and hit evaluation of the MMV Hit Generation Library 1 (HGL1) against asexual blood stage Plasmodium falciparum ,using a nano luciferase reporter read-out” (2022).
Hit rate of the full screen: of about 150,000 compounds, about 540 (0.36%) showed an effect of 50% or more. Some of the results follow.

These molecules were tested on Plasmodium falciparum (assay: Primary screen in NF54 nanoGlo assay, in single point, at 2uM, 72h; a lower Z score goes with more inhibition). Details: timepoint 72 hour.
Format: functional, Erythrocyte

| SMILES | % Inhibition [%] | Z score |
| --- | --- | --- |
| Cc1ccc(CN2CCN([C@H]3CCN(Cc4ccccc4)C3)CC2)nn1 | 6 | -0.85 |
| CN1CC[C@H](N2CC3(CCC2=O)CCN(c2ccc(Cl)cn2)CC3)C1 | -7 | 0.71 |
| Cc1c(C)c2c(c(C)c1NC(=O)CCc1cc3n(n1)CCNC3)NC(=O)CO2 | -5 | 0.64 |
| CC(C)(C)NC(=O)N1CCC2(CC1)N[C@@H](Cc1ccccc1)C(=O)N2Cc1ccc(F)cc1 | -24 | 2.52 |
| COCCOCc1nc([C@H]2CCN(S(=O)(=O)c3ccc4c(c3)OCCO4)C2)no1 | -9 | 1.71 |
| Cn1cccc1C(=O)C(=O)N1CCC[C@](C)(Cc2ccc3c(c2)OCO3)C1 | 5 | -0.93 |
| Cc1ccc(CNC(=O)N2CCC3(CC2)NC(=O)c2ccc(F)cc2N3C)cc1 | -8 | 1 |
| COc1ccc(CNc2nc3c(C)cccc3cc2-c2noc(C(C)C)n2)c(OC)c1 | -11 | 2.07 |
| C=CCC[C@H](O)CN1CCC(Nc2cccc(C)n2)CC1 | -2 | 0.2 |
| COc1ccc(N2CCN(C(=O)NC3CCOCC3)CC2)cc1 | -13 | 2.28 |
| CCOCC(=O)Nc1ccc(N2CCCC2)c2ncccc12 | 14 | -1.87 |
| CC(=O)N[C@@H](C)C(=O)N1CCC(COc2cc(Cl)cc(Cl)c2)CC1 | 19 | -2.45 |
| CCCC1(C2CCN(C(=O)C(OC)c3ccccc3)CC2)NC(=O)N(CCc2cccs2)C1=O (stereo unspecified) | 13 | -1.72 |
| Cc1cc(C(=O)NCCCNC(=O)c2cccc(F)c2)on1 | -3 | 0.35 |
| CC1(C)C2CCC1(C)C1(C2)NC(=O)NC1=O (stereo unspecified) | 4 | -0.79 |
| COc1ccc(-c2nnc([C@H](C)OC(=O)CCS(=O)(=O)c3ccccc3)o2)cc1 | -10 | 1.55 |
| Cc1ccc(-c2cc(C(=O)N(C)C3CCCCC3)c3c(C)nn(C)c3n2)cc1 | 0 | -0.01 |
| O=C1NCCN2CCN(C(=O)CCCc3ccccc3)CC[C@@H]12 | -7 | 1.15 |
| COc1cc(Br)c(F)cc1S(=O)(=O)N1CCCNC(=O)[C@@H]1C | -6 | 0.66 |
| CCn1nc(C)c(CCn2ccnc2C2CC2)c1C | -3 | 0.38 |
| CN(CCCC(C)(C)C)Cc1nnc2n1CCN(C)C2=O | -3 | 0.52 |

| SMILES | % Inhibition [%] | Z score |
| --- | --- | --- |
| COC(=O)[C@H](NC(=O)CN1CCOc2ccc(Cl)cc21)c1ccc(O)cc1 | 34 | -0.75 |
| C[C@H]1C[C@@H](C(F)F)n2ncc(C(=O)NC[C@@H](O)C(F)(F)F)c2N1 | 0 | -0.01 |
| O=C(NC1CCCCC1)c1[nH]cnc1C(=O)N1CCN(Cc2ccccc2)CC1 | 18 | -2.04 |
| COCCN(Cc1csc(COc2cccc(C)c2)n1)C(=O)C1CCCC1 | 1 | -0.08 |
| CCC(CC)n1nccc1C(=O)Nc1sc2c(c1C#N)CCC2 | -2 | 0.39 |
| O=C(NCC1(O)CCCC1)Nc1cccs1 | -6 | 1.03 |
| Fc1ccc(N2CCC(NCCCn3cccn3)CC2)cc1F | -6 | 0.98 |
| Cc1csc(CCNC(=O)COC2CCCC(C)C2)n1 (stereo unspecified) | -5 | 0.69 |
| CC(C)c1nnc(NC(=O)NCCc2nnc(-c3ccco3)[nH]2)s1 | -1 | 0.27 |
| CCn1c(CC2CCN(C(=O)Cc3ccncc3)CC2)nn(C)c1=O | -7 | 1.43 |
| CC(C)(C)OC(=O)N1CCC[C@@H]1CNC(=O)c1ccccc1NC(=O)C(C)(C)C | -5 | 0.5 |
| O=C(Cn1cnc2ccccc2c1=O)Nc1cc(OCc2ccc3c(c2)OCO3)ncn1 | 1 | -0.11 |
| CC[C@]1(c2ccc(C)cc2)CC(=O)N(Cc2nccc(N)n2)C1=O | -6 | 0.79 |
| Cc1cc(C)cc(CON=C(N)CCO)c1 | 39 | -5.07 |
| CC1(C)[C@H]2CC=C(CCNC(=O)Cc3cccnc3)[C@@H]1C2 | -3 | 0.5 |
| COCCn1cnc2c(-c3ccccc3)cn(CC(=O)NCc3ccc(F)cc3)c2c1=O | -9 | 1.37 |
| COc1ccc(CNCCC(CCC(C)C)C2CCOC(C)(C)C2)cc1 (stereo unspecified) | 10 | -1.8 |
| COc1ccc(C(=O)c2c(N)nc3n2CCC3)c(OC)c1 | -2 | 0.19 |
| CCc1ccc(-n2cnnc2)cc1NS(=O)(=O)NCc1ccccc1 | -2 | 0.28 |
| Cc1nnc(C(C)NC(=O)[C@H]2C[C@@H]2c2cccc(Cl)c2)[nH]1 (stereo partly specified) | -4 | 0.77 |
| Cc1cccc(NC(=O)c2cc(-c3cccnc3)nc3ccccc23)n1 | -3 | 0.58 |

| SMILES | % Inhibition [%] | Z score |
| --- | --- | --- |
| CCC(=O)NC1CCN(C(=O)c2ccc(-c3ccccc3)[nH]2)CC1 | -7 | 1.38 |
| Cc1cnn(CC(=O)[C@H](C#N)c2nc3cc(Cl)ccc3c(=O)[nH]2)c1 | -9 | 1.66 |
| CCc1nnc2ccc(NC3CCCCCCC3)nn12 | -16 | 1.4 |
| COc1ccccc1C(=O)N1CCN(S(=O)(=O)c2cc3c(cc2C)NC(=O)CO3)CC1 | -13 | 1.32 |
| Cc1ccc(N2C[C@@H](c3n[nH]c(=S)o3)CC2=O)cc1 | -4 | 0.35 |
| CC(C)(C(=O)N1CCC(Cc2nc3ccccc3[nH]2)CC1)c1cccnc1 | 28 | -3.21 |
| COc1ccc(CN2C(=O)COC[C@H]2C(=O)Nc2cc(C)c(Cl)cc2OC)c(OC)c1 | -2 | 0.27 |
| C[C@H]1CC(=O)N(C)c2ccccc2N1C(=O)c1ccc2ccccc2n1 | 8 | -1.03 |
| CN1CCCCC[C@H](O)c2cc(C(=O)N3CCCCCC3)ccc21 | -21 | 2.44 |
| COCCCN1CCN(C(=O)c2cnc(C3CC3)nc2)CC1 | -15 | 2.09 |
| CN1CCC[C@@H](C(=O)c2ccncc2)C1=O | 11 | -1.22 |
| c1ccc(-c2cn3c4c(sc3n2)CCCCC4)cc1 | -13 | 1.52 |
| O=C(O)CC1CCN(Cc2cc3ccccc3o2)CC1 | 5 | -0.68 |
| C[C@@H](CN1CCC2(CCC(=O)N(CCc3ccncc3)C2)CC1)c1ccccc1 | 5 | -0.84 |
| Cc1ccc(-c2ncn(C3CCCCC3)c2-c2ccc(C(=O)NCCN3CCOCC3)o2)cc1 | -1 | 0.14 |
| COC(=O)C(C)(C)NCc1ccccc1 | 29 | -3.25 |
| Cc1noc(C)c1CN(C)C(=O)COc1ccc2ccccc2c1 | 25 | -3.65 |
| C#CCNC(=O)CC(=O)Nc1ccc(Cl)c(OC(F)F)c1 | -3 | 0.36 |
| CN1CCN(c2c(F)cc3c(=O)c(C(=O)O)cn(-c4ccc(OC5CC6CCC5(C)C6(C)C)c(F)c4)c3c2F)CC1 (stereo unspecified) | 37 | -4.72 |
| CCOc1ccccc1OC/C=C/CN1CCC[C@H](C)C1 | -4 | 0.48 |
| Cc1nc(C(=O)N[C@H](C(N)=O)c2ccccc2)cs1 | 0 | 0.08 |

| SMILES | % Inhibition [%] | Z score |
| --- | --- | --- |
| CCN1CCC2CCC(C1)N2C(=O)C(=O)Nc1ccc(C#N)cc1 (stereo unspecified) | -6 | 0.62 |
| COC[C@H]1CN(C2CCC2)CC12CCN(C(=O)c1ccc3ncccc3c1)CC2 | 2 | -0.2 |
| CN1CCN(c2cccc(NC(=O)NCCc3c[nH]cn3)c2)C1=O | -1 | 0.18 |
| Cc1ccc(F)cc1C(=O)O[C@H]1CCCN(c2ccnc(N)n2)C1 | -4 | 0.62 |
| CNC(=O)[C@@H](C)CN(C)c1nccn2ccnc12 | -25 | 3.33 |
| CC(C)(C)c1ncc(-c2cc(F)cc3cccnc23)[nH]1 | -16 | 1.82 |
| Cc1c(-c2ccc(CN(C)C)cc2)c(=O)n(C)c(=O)n1C | -7 | 0.84 |
| Cc1[nH]ccc1C(=O)N(C)Cc1nc(CC(C)C)no1 | 6 | -0.85 |
| COc1ccccc1N1CCN(CCCNC(=O)c2nn(-c3ccc(C)cc3)c(=O)n(C)c2=O)CC1 | -10 | 0.87 |
| Nc1nnnn1CC(=O)N[C@H]1CCOC[C@@H]1Oc1ccccn1 | -17 | 3.4 |
| CC[C@@H]1Oc2ccc(NC(=O)c3ccccc3F)cc2CN(Cc2ccc3c(c2)OCO3)C1=O | -12 | 1.33 |
| COc1ccc(NC(=O)Cc2c(C)nn(-c3nc(C)cs3)c2O)cc1 | -16 | 1.98 |
| Cc1cc(=O)n(CC(=O)NCc2ccccc2Cl)c(Nc2ccc(F)cc2)n1 | -20 | 2.1 |
| CC12CCN(C(=O)C3=CCC3)CC1C2(F)F (stereo unspecified) | -6 | 0.8 |
| COc1ccc(-c2c[nH]nc2-c2ccc(OCc3ccc(C)cc3)cc2O)cc1 | -8 | 1.18 |
| Cc1ccc(N(Cc2ccco2)C(=O)c2ccc(C)c(S(C)(=O)=O)c2)cc1 | -15 | 2.81 |
| CN(C)c1cccc(-c2nc(-c3cn(Cc4cccc(F)c4)nn3)no2)c1 | -15 | 2.85 |
| Cc1cc(-c2nc(C(C)C)nn2-c2ccccn2)cc(S(N)(=O)=O)c1C | -17 | 1.85 |
| c1nc(NCc2cn([C@H]3CCOC3)nn2)c2sccc2n1 | -9 | 1.62 |
| c1cc(-c2nc(-c3cccs3)no2)cc(-n2cnnn2)c1 | -1 | 0.13 |
